Laboratory results as given in the RNAGym collection of RNA variant scans (doi:10.7554/elife.90254).
The source gives no read counts; variants with many changes may rest on few reads.

B1: LINE1-mini (parent)
chain: GGCAGAGCUCAACACAGCGUGGCAAAGUGGCUGUGGCUAGACUGCC

Variants of: B1
Assay: self-cleavage, relative activity (ratio to wild type); higher = more cleavage; in vitro, sequencing; the parent is a self-cleaving ribozyme
GCAAGAUGUCAACACAGCGUGGUAAAGUGGCUGUGGCUAGACUGCC [G2C C3A G7U C8G C23U] gave a self-cleavage of 0.25. Work on UGAAGAGCUCCACAAAGCGUGGCAAAGUGGCUGUUGCUAGACUGCC [G1U C3A A11C C15A G35U] yielded a self-cleavage of 0.04. Work on GGGAUAGCUUAACAGAGCGUGGCAAAGUGGCUGUGGCUAGACUGCC [C3G G5U C10U C15G] yielded a self-cleavage of 0.06. Variant GGCAGAGGUCAAAACAUCGAGGCAAAGUGGCUGUAGCUAGACUGCU [C8G C13A G17U U20A G35A C46U] has a self-cleavage of 0.06. In the case of GGCAUAGCUCAACAAAGCUUGGCAAAGUGGCUGUGGCUAGACUGCC [G5U C15A G19U], the self-cleavage is reported as 0.03. With UGCAGAGCUGAACACAGCGUGGCUAAGUGGCUGGGGCUAGAGUGCC [G1U C10G A24U U34G C42G] the self-cleavage was 0. For AGCAGAGCUCCACACAGUGUGGCAAAGUAGCUGUGGCUAGACUGCC [G1A A11C C18U G29A], the self-cleavage was 0.03. In the case of GGCAGAUGUCAACACAGCGUGGCAAAGUGACUGUGGCUAGACUGCC [G7U C8G G30A], the self-cleavage is reported as 0.37. Work on GGGAGAGCUCAACACAGCGUGCCAGACUGGCUGUGGCUAGACUGCC [C3G G22C A25G G27C] yielded a self-cleavage of 0.09. In the case of GGCAGAGCUCAACACAGCGUGGCAAAGUGAAUGUGGCUAGACCGCC [G30A C31A U43C], the self-cleavage is reported as 0.02. GGUAGAGCUCAACACAGCGUGGCCAAGUUGCUGUGGCUAGACUGCC [C3U A24C G29U] showed a self-cleavage of 0.21. Variant GGCAGAGCUCAAAACAGCGUGCCAAAGUGGCUGUGGCUAGACUCCC [C13A G22C G44C] has a self-cleavage of 0.03. With GGAAGAGCUCAAUACAGCGUGGCAAAGUAGCUGUGGCUAGACUGCC [C3A C13U G29A] the self-cleavage was 0.13. Work on GACAGAGCCCAACACAGCGUGGCAAAGUCGCUCUGGCUAGACUGCC [G2A U9C G29C G33C] yielded a self-cleavage of 0.05. With GGACGAGCGCAACACAACGUGGCAAAGUGGCUGUGGCUAGACUGCC [C3A A4C U9G G17A] the self-cleavage was 0.08. GGCACAGCUCACCACAGCGUGACAAGGUGUCUGUGGCUAGACUGCC [G5C A12C G22A A26G G30U] gave a self-cleavage of 0.01. With GGCAGACCUCAACACAGCGUGGCAAAGAUGCGGUGGCGAGACUGCC [G7C U28A G29U U32G U38G] the self-cleavage was 0.02. In the case of GGCAGAACUCAACACAGGGUGGCACAGUGGCUGUGGUUAGACUGCC [G7A C18G A25C C37U], the self-cleavage is reported as 0.04. GGGAGAGCUGAACACAGAGUGGCAAAGGGGAUGUGGCUAGACUGCC [C3G C10G C18A U28G C31A] gave a self-cleavage of 0.02. Variant GGCAGAGCUCAACACAGCGUGGCAAAGUGGGUUUGGCUAGUCUGCC [C31G G33U A41U] has a self-cleavage of 0.11. Work on GGCAGAGCUCAACACAGCGUGUCAAAGUGGCAGUGGCUAGACUGCU [G22U U32A C46U] yielded a self-cleavage of 0.22. In the case of GGCAGAGCUCAACACAUCGUGGCAAAGCGGCAGUGGCUAGACUGCC [G17U U28C U32A], the self-cleavage is reported as 0.07. In the case of GGCAGAGCUCAACACAGCCUGGGAAAGGGGCUGUGGCUAGACUGCC [G19C C23G U28G], the self-cleavage is reported as 0.18. GUCAGAGCUCAACACUGCGUAGCAAAGUGGCUGUGGCUAGACUGCC [G2U A16U G21A] gave a self-cleavage of 0.07. For GGCAGAGCUAAACACAGCCUGGCUAAGUGGCUGUGGCUAGACUGCC [C10A G19C A24U], the self-cleavage was 0.02. GGCAUAGCUCAACACAGCGUGGAACAGCGGCUGUGCCUAUACUGCC [G5U C23A A25C U28C G36C G40U] gave a self-cleavage of 0.03. In the case of GGCAGAGCUCAACACAGCGUGGCAAAGUGGCUGUGACUUGACCGCC [G36A A39U U43C], the self-cleavage is reported as 0.32. Work on GGCAGAGCUUAACACAGCGUCACAAAGUGGCUGUGGCUAGACUGCC [C10U G21C G22A] yielded a self-cleavage of 0.27. With GGCAGGGCUCAACACAGCGUGGCAAAGUGGCUGUGGUUAGACUGCG [A6G C37U C46G] the self-cleavage was 0.05. GGCAGAGCUCUACAUAGCCUGGAAAAGUGGCUGUGGCUAGACUGCC [A11U C15U G19C C23A] gave a self-cleavage of 0.15. In the case of GGCAGAGCUCAACACAGCAUGGCAAAGUGACUCUGGCUAGACUGUC [G19A G30A G33C C45U], the self-cleavage is reported as 0.02. UACAGAGCUCAACACAGUGUGGCAAAGUGGAUGUGGGUAGACUGCC [G1U G2A C18U C31A C37G] showed a self-cleavage of 0.1. In the case of GGCAGAGCUCAACACAGCGUGGCCGAGUGGCUGCGGCUUGACUGCC [A24C A25G U34C A39U], the self-cleavage is reported as 0.05. CGCAGAGCUCAACACAGCGUGGCAAAGAUGCUGUGGCUAGACUGCC [G1C U28A G29U] gave a self-cleavage of 0.06. UGCAGAGCUCCACACAGCGUGGCAAAGUGGCAGUGGCUAGACUGCC [G1U A11C U32A] gave a self-cleavage of 0.01. GCCAGAGCUCAAUACAGUGUGGCAAACUGGCUGUGGCUAGACUGCC [G2C C13U C18U G27C] showed a self-cleavage of 0.02. GGCAGUGCUCAACACAGCGUGGCAAAGUGGCUGUGGCUCGACAGCC [A6U A39C U43A] showed a self-cleavage of 0.04. In the case of GGCAGAGCUCAACACAGCGUGGCGAAGUGGGUGUGGGUAGACUGCC [A24G C31G C37G], the self-cleavage is reported as 0.01. Work on GGCAGAGCUCAACACAGCGUGGCAAAAUGACCGUGGCUAGACUGCC [G27A G30A U32C] yielded a self-cleavage of 0.18. For GGCUGAGCUCUACACAGCGUGGCAAAGUGGCUGUGGCUAUACUGCC [A4U A11U G40U], the self-cleavage was 0.03. Variant GGCAGAGCUCAACACAACGUGGCAAAAUCGCUGAGGCUAGACUGCC [G17A G27A G29C U34A] has a self-cleavage of 0.15. With GGCAGAGAUCAACACAGCGUGGCAAAGUGGCUGUGGCCAGACUGGC [C8A U38C C45G] the self-cleavage was 0.2. GGCAGAGCUCAACACAGCGUGGCAAAGUGGCUCUGGCUAUACGGCG [G33C G40U U43G C46G] gave a self-cleavage of 0. In the case of GGCACAGCUCAACACUGCGUGGCAAAGUGGCUGUGGUUAGACUGGC [G5C A16U C37U C45G], the self-cleavage is reported as 0.04. For GGCACAGCUCAACACAGCGUGGCAAAGUGGCUGUGGGUGGACUGCC [G5C C37G A39G], the self-cleavage was 0.03. Variant GUCAGAGCUCAACACAGCUCGGCAAAGUGGCUGUGGUUAGACUGCC [G2U G19U U20C C37U] has a self-cleavage of 0. GGCAGACCUCAACAUAGCGUUGCAAAGUGGCUGUGGCUAGACUGCC [G7C C15U G21U] gave a self-cleavage of 0.08. UGCAGAGCUCAACACAUCGUGUCAAAGUAGCUGUGGCUAGACUGCU [G1U G17U G22U G29A C46U] showed a self-cleavage of 0.09. With GGCAGAGCUCAACGCAACGUGACAAAGUGCCUGCGGCAAGAGUGAC [A14G G17A G22A G30C U34C U38A C42G C45A] the self-cleavage was 0.02. Variant GGCAGAGCUCAACAUAGCGUUGCAAAUUGGUUGUGGCUAGGCUCCC [C15U G21U G27U C31U A41G G44C] has a self-cleavage of 0.03. With GGCAGAGCUCAACACAGCGUGGCAAAGUCGCUGUGGGUAAACUGCC [G29C C37G G40A] the self-cleavage was 0.02. For GGCAGAGCUCAACGCAGCGUGGCAAAAUGGGUGUGGCUCGACUGCC [A14G G27A C31G A39C], the self-cleavage was 0.02. In the case of GGCAGAGCUCAACACAGCGUGGCAAAGUGGCUCUGAGUAGACUGGC [G33C G36A C37G C45G], the self-cleavage is reported as 0.01. With GGCAGAGGUCAACACAACGUGGCAAAGGGGCUGUGGCUAGACUGCC [C8G G17A U28G] the self-cleavage was 0.06. GGCAGAGCUCAUCACAGCGUGGCAAAGUGGCGGUGGAUAGACUGCC [A12U U32G C37A] showed a self-cleavage of 0.02. GGCAGAGCUCAUAACAGCGUGGCCAAGUGGCUGUGGCUAGACUGCU [A12U C13A A24C C46U] showed a self-cleavage of 0.06.
